Test results published in the RNAGym collection of RNA variant scans (doi:10.1073/pnas.2313332121).
This sample is rich in variants without activity.

B1: TPR 5TU (parent)
chain: GGAUCUUCUCGAUCUAACAAAAAAGACAAAUCUGCCACAAAGCUUGAGAGCAUCUUCGGAUGCAGAGGCGGCAGCCUUCGGUGGCGCGAUAGCGCCAACGUUCUCAACUAUGACACGCAAAACGCGUGCUCCGUUGAAUGGAGUUUAUCAUG

Variants of: B1
Assay: polymerase ribozyme fitness, log enrichment relative to wild type (log ratio); higher = more active; in vitro selection for triplet polymerase activity
Method in brief: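 Each subunit of a heterodimeric triplet polymerase ribozyme was mutagenized into a library by PCR, transcribed, and subjected to one round of in vitro selection, run in triplicate. Libraries were annealed with a biotinylated primer, the partner subunit and triplets, incubated frozen at −7 °C, and extended constructs were gel-excised, captured on streptavidin beads and recovered by RT-PCR. Input and output libraries were sequenced on Illumina, keeping genotypes with ≥10 input reads and ≥1 read per output. Fitness is log base 2 of genotype enrichment divided by wild-type enrichment, from inverse-variance-weighted replicate averages.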

Going from GGAUCUUCUCGAUCUAACAAAAAAGACAAAUCUGCCACAAAGCUUGAGAGCAUCUUCGGAUGCAGAGGCGGCAGACUUCGGUGGCGGGAUAGCGCCAACGUUCUCAACUAUGACACGCAAAACGCGUGCUCCGUUGAAUGGAAUUUAUCAUG to GGAUCUUCUCGAUCUAACAAAAAAGACAAAUCUGCCACAAAGCUUGAGAGCAUCUUCGGAUGCAGAGGCGGCAGACUUCGGUGGCGUGAUAGCGCCAACGUUCUCAACUAUGACACGCAAAACGCGUGCUCCGUUGAAUGGAGUUUAUCAUG, the “polymerase ribozyme fitness (log ratio)” value rises from no more than -4.2 to -3.81.

GGAUCUUCUCGAUCUAACAAAAAAGACAAAUCUGCCACAAAGCUUGAGAGCAUCUUCGGAUGCAGAGGCGGCAGACUUCGGUGGCGCGAUAGGGCCAACGUUCUCAACUAUGACACGCAAAACGUGUGCUCCGUUGAAUGGAGUUUAUCAUG and GGAUCUUCUCGAUCUAACAAAAAAGACAAAUCUGCCACAAAGCUUGAGAGCAUCUUCGGAUGCAGAGGCGGCAGACUUCGGUGGCGCGAUAGCGCGAACGUUCUCAACUAUGACACGCAAAACGCGUGCUCCGUUGAAUGGAGUUUAUCAUG cannot be ordered by “polymerase ribozyme fitness (log ratio)” value: no more than -4.2 for the first, no more than -4.2 for the second.

GGAUCUUCUCGAUCUAACAAAAAAGACAAAUCUGCCACAAAGCUUGAGAGCAUCUUCGGAUGCAGAGGCGGCAGACUUCGGUGGCGCGAUAGCGCUCACGUUCUCAACUAUGACACGCAAAACGCGUGCUCCGUUGAAUGGAGUUUAUCAUG and GGAUCUUCUCGAUCUAACAAAAAAGACAAAUCUGCCACAAAGCUUGAGAGCAUCUUCGGAUGCAGAGGCGGCAGACUUCGGUGGCGCGAUAGCGCCAACGUUCUCAAUUAUGACACGCAAAACGCGUGCUCCGUUGAAUGGAGUUUAACAUG cannot be ordered by “polymerase ribozyme fitness (log ratio)” value: no more than -4.2 for the first, no more than -4.2 for the second.

GGAUCUUCUCGAUCUAACAAAAAAGACAAAUCUGCCACAAAGCUUGAGAGCAUCUUCGGAUGCAGAGGCGGCAGACUUCCGUGGCGCGAUAGCGCCAACGUUCUGAACUAUGACACGCAAAACGCGUGCUCCGUUGAAUGGAGUUUAUCAUG and GGAUCUUCUCGAUCUAACAAAAAAGACAAAUCUGCCACAAAGCUUGAGAGCAUCUUCGGAUGCAGAGGCGGCAGACUUCGCUGGCGCGAUAGCGCCAACGUUCUCAACUAUGACACGCAAAACGCGUGCUCCGUUGAAUGGAGUUUAUCAUG cannot be ordered by “polymerase ribozyme fitness (log ratio)” value: no more than -4.2 for the first, no more than -4.2 for the second.

GGAUCUUCUCGAUCUAACAAAAAAGACAAAUCUGCCACAAAGCUUGAGAGCAUCUUCGGAUGCAGAGGCGGCAGACUUCGCUGGCGCGAUAGCGCAACCGUUCUCAACUAUGACACGCAAAACGCGUGCUCCGUUGAAUGGAGUUUAUCAUG and GGAUCUUCUCGAUCUAACAAAAAAGACAAAUCUGCCACAAAGCUUGAGAGCAUCUUCGGAUGCAGAGGCGGCAGACUUCGGUUGCGCGAUAGCGCCAACGUUCGCAGCUAUGACACGCAAAACGCGUGCUCCGUUGAAUGGAGUUUAUCAUG cannot be ordered by “polymerase ribozyme fitness (log ratio)” value: no more than -4.2 for the first, no more than -4.2 for the second.

GGAUCUUCUCGAUCUAACAAAAAAGACAAAUCUGCCACAAAGCUUGAGAGCAUCUUCGGAUGCAGAGGCGGCAGACUUCGGUGGCGCGAUACCGCCAACGUUCUCAACUAUGACACGCAAAACGCGUGCUCCGUUGAAUGGAGUUUAUCAUG and GGAUCUUCUCGAUCUAACAAAAAAGACAAAUCUGCCACAAAGCUUGAGAGCAUCUUCGGAUGCAGAGGCGGCAGACUUCGGUGGCGCGAUAUCGCCAGCGAUCUCAACUAUGACACGCAAAACGCGUGCUCCGUUAACUGAAGUUUAUCAUG cannot be ordered by “polymerase ribozyme fitness (log ratio)” value: no more than -4.2 for the first, no more than -4.2 for the second.

GGAUCUUCUCGAUCUAACAAAAAAGACAAAUCUGCCACAAAGCUUGAGAGCAUCUUCGGAUGCAGAGGCGGCAGACUUCGGUGGCGCGAUAGCGCCAACGUUCUCAACUAUGACACGCAAAACGCGUGCUCCGUUGAAUCGAGUUUAUCAUG and GGAUCUUCUCGAUCUAACAAAAAAGACAAAUCUGCCACAAAGCUUGAGAGCAUCUUCGGAUGCAGAGGCGGCAGACUUCGGGGGCGCGAUAGCGGCAACGUUCUCAACUAUGACACGCAAAACGCGUGCUCCGUUGAAUGGAGUUUAUUAUG cannot be ordered by “polymerase ribozyme fitness (log ratio)” value: no more than -4.2 for the first, no more than -4.2 for the second.

GGAUCUUCUCGAUCUAACAAAAAAGACAAAUCUGCCACAAAGCUUGAGAGCAUCUUCGGAUGCAGAGGCGGCAGACUUCGGUGGCGCGACAGCGUCAACGUUCUCAGCUAUGACACGCAAAACGCGGGCUCCGUUGAAUGCAGUUUAUCAUG and GGAUCUUCUCGAUCUAACAAAAAAGACAAAUCUGCCACAAAGCUUGAGAGCAUCUUCGGAUGCAGAGGCGGCAGACUUCGGUGGCGCGAUAGCGCCAACGUUCUCAACUAUGACACGCAAAACGCGUGCUCCGUUGAACGGAGUUAAUCAUG cannot be ordered by “polymerase ribozyme fitness (log ratio)” value: no more than -4.2 for the first, no more than -4.2 for the second.

GGAUCUUCUCGAUCUAACAAAAAAGACAAAUCUGCCACAAAGCUUGAGAGCAUCUUCGGAUGCAGAGGCGGCAGGCUUCGGUGGCGCGGUAGCGCCAACGUUCCGAACUAUGACACGCAAAACGCGUGCUCCGUUGAAUGGAGUUUAUCCUG and GGAUCUUCUCGAUCUAACAAAAAAGACAAAUCUGCCACAAAGCUUGAGAGCAUCUUCGGAUGCAGAGGCGGCAGGCUUCGGUGGCGCGAUCUCGUCAACGGUCUCAACUAUGGCACGCAAAACGCGUGCUCCGUUGAAUGGAGUUUAUCAUG cannot be ordered by “polymerase ribozyme fitness (log ratio)” value: no more than -4.2 for the first, no more than -4.2 for the second.

GGAUCUUCUCGAUCUAACAAAAAAGACAAAUCUGCCACAAAGCUUGAGAGCAUCUUCGGAUGCAGAGGCGGCAGGCUUCGGUGGCGCGAUAGCGCCUACGUUCUCAACUAUGACACGCAAAACGCGUGCUCCGUUGAAUGGAGUUUAUCAUG and GGAUCUUCUCGAUCUAACAAAAAAGACAAAUCUGCCACAAAGCUUGAGAGCAUCUUCGGAUGCAGAGGCGGCAGGCUUCGGUGGCGCGAUAGCGCCUACGUUCUCAACUAUGACACGCAAAACGCUUGCACCGUUGAAUGGAGUUUAUCAUG cannot be ordered by “polymerase ribozyme fitness (log ratio)” value: no more than -4.2 for the first, no more than -4.2 for the second.

GGAUCUUCUCGAUCUAACAAAAAAGACAAAUCUGCCACAAAGCUUGAGAGCAUCUUCGGAUGCAGAGGCGGCAGGCUUCGGUGGCGCGAUAGCGCCUACGUUCUCAACUAUGACACGCAAAACGCGUGCUCCGUUGAAUAGAGUUUAUCAUG and GGAUCUUCUCGAUCUAACAAAAAAGACAAAUCUGCCACAAAGCUUGAGAGCAUCUUCGGAUGCAGAGGCGGCAGGCUUCGGUGGCGCGAUAGCGCCAUUGUUGUCAACUAUGACACGCAAAAAGCGUGCUCCGUUGAAUGGAGUUUAUCAUG cannot be ordered by “polymerase ribozyme fitness (log ratio)” value: no more than -4.2 for the first, no more than -4.2 for the second.

GGAUCUUCUCGAUCUAACAAAAAAGACAAAUCUGCCACAAAGCUUGAGAGCAUCUUCGGAUGCAGAGGCGGCAGGCUUCGGUGGCGCGAUAGCGCCAACGUUCUCCAAUAUGACACGCAAAACGCGUGCUCCGUUGAAUGGAGUUUAUCAUG and GGAUCUUCUCGAUCUAACAAAAAAGACAAAUCUGCCACAAAGCUUGAGAGCAUCUUCGGAUGCAGAGGCGGCAGGCUUCGGUGGCGCGAUAGCGCCAACGUUCUCAACUAUGACGCGCAAAACGCGUGCUCCGUUGAAUGGAGUUUAUCAUG cannot be ordered by “polymerase ribozyme fitness (log ratio)” value: no more than -4.2 for the first, no more than -4.2 for the second.

GGAUCUUCUCGAUCUAACAAAAAAGACAAAUCUGCCACAAAGCUUGAGAGCAUCUUCGGAUGCAGAGGCGGCAGGAUUCGGUGGCGCGAUAGCGACAACGUUCUCAACUAUGACACGCAAAACGCGUACUCCGUUGAAUGGAGUUUAUCAUG and GGAUCUUCUCGAUCUAACAAAAAAGACAAAUCUGCCACAAAGCUUGAGAGCAUCUUCGGAUGCAGAGGCGGCAGGGUUCCGUGGCGCGAUAGCGCCAAAGUUCUCAACUAUGACACGCAACACGCGUGCUCCGGUGAAUGAACUUUAUCAUG cannot be ordered by “polymerase ribozyme fitness (log ratio)” value: no more than -4.2 for the first, no more than -4.2 for the second.

GGAUCUUCUCGAUCUAACAAAAAAGACAAAUCUGCCACAAAGCUUGAGAGCAUCUUCGGAUGCAGAGGCGGCAGGUUUCGGUGGCGCGAUAGCGCCUACGUUCUCAACUAUGACACGCAAAACGCGUGCUCCGUUGAAUGCAGUUUAUCAUG and GGAUCUUCUCGAUCUAACAAAAAAGACAAAUCUGCCACAAAGCUUGAGAGCAUCUUCGGAUGCAGAGGCGGCAGGCUUGGGUGGCGCGAUAGCGCCAACGUUCUCAACUAUGACACGCAAAACGCGUGCUCCGUUGAAUGUAGUUUAUCAUG cannot be ordered by “polymerase ribozyme fitness (log ratio)” value: no more than -4.2 for the first, no more than -4.2 for the second.

GGAUCUUCUCGAUCUAACAAAAAAGACAAAUCUGCCACAAAGCUUGAGAGCAUCUUCGGAUGCAGAGGCGGCAGGCUUCGGUGGAGCGAUAGCGCCAACGUUCUGAACUAUGACACGCAAAACGCGUGCGCCGUUGAAUGGAGUUGAUCAUG and GGAUCUUCUCGAUCUAACAAAAAAGACAAAUCUGCCACAAAGCUUGAGAGCAUCUUCGGAUGCAGAGGCGGCAGGCUUCGGUGGUGAGAUAGCGCCAACGUUCUCAACUAUGGCACGCAAAACGCGUGCUCCGUUGAAUGGAGUUUAUCAUG cannot be ordered by “polymerase ribozyme fitness (log ratio)” value: no more than -4.2 for the first, no more than -4.2 for the second.

Compared with GGAUCUUCUCGAUCUAACAAAAAAGACAAAUCUGCCACAAAGCUUGAGAGCAUCUUCGGAUGCAGAGGCGGCAGGCUUCGGUGGUGCGAUAGCGCCAACGCUCUCAACUAUGACACGCAAAACGCGUGCUCCGUUGAAUGGAGUUUAUCAUG, GGAUCUUCUCGAUCUAACAAAAAAGACAAAUCUGCCACAAAGCUUGAGAGCAUCUUCGGAUGCAGAGGCGGCAGGCUUCGGUGGCGCGAUAGAGCCAACGUUCUCAACUAUGUCACGCAAAACGCGUGCUCCGUUGAAUGGGGUUUAUCAUG is higher in “polymerase ribozyme fitness (log ratio)” value: no more than -4.2 for the first, -4.17 for the second.

First: GGAUCUUCUCGAUCUAACAAAAAAGACAAAUCUGCCACAAAGCUUGAGAGCAUCUUCGGAUGCAGAGGCGGCAGGCUUCGGUGGCGCGAUAGCGUCAACGUUCUCAACUAUGACACGCAAAACGCGUGCUCCGUUGAAUGGAGUUUAUCAUG
Second: GGAUCUUCUCGAUCUAACAAAAAAGACAAAUCUGCCACAAAGCUUGAGAGCAUCUUCGGAUGCAGAGGCGGCAGGCUUCGGUGGCGCGAUAGCGCCAACGUUCUCAACUAUGACACGUAAAACGCGUGCUCCGUUGAAUGGAGUUUAUCAUG
The “polymerase ribozyme fitness (log ratio)” value of the first is higher: -2.19 for the first, -3.87 for the second.

GGAUCUUCUCGAUCUAACAAAAAAGACAAAUCUGCCACAAAGCUUGAGAGCAUCUUCGGAUGCAGAGGCGGCAGGCUUCGGUGGCGCGAUAGCGCCAACGUUCUCAACUAUGACACGCAAAAAGCGUGCUCCGUUGAAUGCAGUUUAUCAUG and GGAUCUUCUCGAUCUAACAAAAAAGACAAAUCUGCCACAAAGCUUGAGAGCAUCUUCGGAUGCAGAGGCGGCAGGCUUCAGUGGCGCGAUAGCGCGAACGUUCUCAACUAUCACACGCAAAACGCGUGCUCCGUUGAAUGGAGUUUAUCAUG cannot be ordered by “polymerase ribozyme fitness (log ratio)” value: no more than -4.2 for the first, no more than -4.2 for the second.

GGAUCUUCUCGAUCUAACAAAAAAGACAAAUCUGCCACAAAGCUUGAGAGCAUCUUCGGAUGCAGAGGCGGCAGGCUUCCGUGGCGCGAUAGCGCUAACGUUCUCAACUAUGACACGCAAAACGCGUGCUCCGUUGAAUGGAGUUUAUCAUG and GGAUCUUCUCGAUCUAACAAAAAAGACAAAUCUGCCACAAAGCUUGAGAGCAUCUUCGGAUGCAGAGGCGGCAGGCUUCGGUAGCGCGAUGAGGCAAACGUUCUCAACUAGGACACGCAAAACGCGUGCUCUGUUGAAUGAAGUUUUUCAUG cannot be ordered by “polymerase ribozyme fitness (log ratio)” value: no more than -4.2 for the first, no more than -4.2 for the second.
